# Laboratory results published in ChEMBL document CHEMBL4888484, “Replenishing the malaria drug discovery pipeline: Screening and hit evaluation of the MMV Hit Generation Library 1 (HGL1) against asexual blood stage Plasmodium falciparum ,using a nano luciferase reporter read-out” (2022).
# Hit rate of the full screen: of about 150,000 compounds, about 540 (0.36%) showed an effect of 50% or more. Some of the results follow.
# Tested on: Plasmodium falciparum
# Experiment: Primary screen in NF54 nanoGlo assay, in single point, at 2uM, 72h; a lower Z score goes with more inhibition
# Format: functional, Erythrocyte
# Settings: timepoint 72 hour
Structure (SMILES),% Inhibition [%],Z score
CN1CCN(C[C@H]2CCCN(CCS(=O)(=O)c3ccccc3)C2)CC1,-7,0.96
CCC(C)OCC(=O)N(C)C1CCN(CC)CC1C (centres undefined),-13,1.49
CCn1c(=O)cc(C(F)(F)F)[nH]c1=O,6,-0.74
COc1ccc(S(=O)(=O)N2CCC3(CC2)N[C@@H](C)C(=O)N3CCc2ccc(OC)c(OC)c2)cc1,0,0.04
CN(C)Cc1ccc(-c2nc(C(C)(C)C)no2)o1,-3,0.55
CN1C(=O)N[C@]2(CCN(C(=O)NCc3noc4c3CCCC4)C2)C1=O,-8,1.09
CN1C[C@]2(C(=O)c3ccccc3)CN(C)C[C@](C(=O)c3ccccc3)(C1)C2,24,-3.12
O=C(NC1CCCC1)c1nc[nH]c1C(=O)NCc1ccccc1,15,-1.76
Cc1nn(CC(=O)NCCc2cscn2)c(=O)n1CCc1ccccc1,-5,0.51
Cc1cccnc1C(=O)N1CC2(C[C@@H](C(=O)N3CCCC3)N(C)C2)C1,-9,1.06
CCCC[C@H](CC)C(=O)N1CCC(Cc2ccc3c(c2)OCO3)CC1,-10,1.01
CCNC(=O)N1CCN(C(=O)c2ccc3cc[nH]c3c2)CC1,12,-1.91
CCC(C)(C)NCC(=O)Nc1cc(C)on1,-19,3.98
Cc1cc(C)n(CC(=O)Nc2csc(-c3ccccn3)n2)n1,4,-0.5
O=C1NC2(CCCCC2)C(=O)N1CN1CCN(Cc2ccc3c(c2)CCO3)CC1,-7,1.29
CC(C)NC(=O)NC[C@H]1CCCC1(F)F,-14,1.34
CN(CCc1ccccn1)C(=O)c1cn2ccnc(-c3ccccc3)c2n1,30,-3.35
Cc1ccc(F)cc1C(=O)NC[C@H]1CCCN(CCn2cc(Cl)cn2)C1,-5,0.73
Cc1ccc(Cl)cc1N1CCN(C(=O)c2csc(-c3cccs3)n2)CC1,-23,2.87
COCC1(C(=O)N(C)CC2(CO)CCCC2)CCC1,-11,2.12
CCc1sc(N)nc1CC(=O)OC,8,-1.09
COC1(C)CC(NC(=O)CCc2cscn2)C1(C)C (centres undefined),-10,1.05

Structure (SMILES),% Inhibition [%],Z score
C[C@H](NC(=O)N1CCC(C)(C(=O)O)CC1)C1CCC(F)CC1 (some centres undefined),-8,0.69
Cc1csc(CCNc2cncc(C(N)=O)n2)n1,-2,0.35
CC(C)N[C@H]1CCCN(C(=O)c2cc3c(C4CC4)cccc3[nH]2)C1,18,-2.31
CCOC(=O)[C@@H]1CCCN(C(=O)c2cnn3cccc(OC)c23)C1,1,-0.12
OC[C@@]1(CCOc2ccccc2)CCCN(c2ncnc3sccc23)C1,-16,1.57
CN(C)C(C)(C)CNCc1c[nH]nc1-c1cccs1,7,-1.38
O=C(NCc1cc2n(n1)CCN(C1CCCCC1)C2)c1cccc(F)c1F,-7,1.17
O=C(COc1ccccc1)N1CC(Oc2cccnc2)C1,-8,1.56
Cc1ccc(CN(C(=O)NCc2ccco2)[C@H]2CCc3ccccc32)cc1,-5,0.82
CCN(CC)CCCNc1ccc(C2CCCC2)cc1,-7,1.32
C[C@@H](c1cccnc1)N(C)CCCc1ccc2c(c1)CCO2,-10,1.51
CCn1nc(-c2cc(F)cc(C(F)(F)F)c2)nc1N(C)C,-6,0.77
Cc1nc(CN(CC2CCN(Cc3ccccc3F)CC2)C[C@H]2CCCO2)c[nH]1,7,-0.93
C[C@H](NC(=O)Nc1cc(=O)n(C)cc1Br)C1CCC1,-8,1.3
O=C(NC[C@]1(O)CCc2ccccc2C1)C(=O)NC1CC1,-18,2.29
COCC(=O)N[C@H]1CCC12CCN(C(=O)CC1CCCC1)CC2,-14,1.83
Cc1cnc(CCNC(=O)Nc2ccnc(C(=O)N3CCN(C)CC3)c2)c(C)c1,10,-1.25
O=C(c1ccc2c(c1)OCO2)N1CC(OCC(F)F)C1,-3,0.4
COc1ccc(C(=O)Nc2cc(-c3cccc(C)c3)nn2-c2ccccc2)cc1,-2,0.24
O=C1CC2(CCN(C3CCc4ccccc4NC3=O)C2)CN1 (centres undefined),-1,0.16
CC(OC1CCCCCC1)C(=O)N1CCNCC1c1ccncc1 (centres undefined),5,-0.68
Cc1n[nH]cc1CNC[C@H](CC(C)C)N(C)C,-14,1.72

Structure (SMILES),% Inhibition [%],Z score
Cc1nn(C)cc1S(=O)(=O)n1c(=O)cc(C(F)(F)F)c2cn(C(C)C)nc21,31,-3.54
CCn1ccnc1C(=O)Nc1ccc(OC)nc1,35,-0.71
C=CCOC(=O)Nc1cc(Cl)c(Cl)cc1Cl,7,-0.83
CCc1nc(C2(c3ccccc3)CCC2)no1,-5,0.89
C/C=C(\C)CN1CC[C@@]2(CCCN(Cc3cc(OC)ccc3F)C2=O)C1,-4,0.42
CC[C@](C)(OC)c1nc(-c2ccc(C(F)(F)F)[nH]c2=O)no1,2,-0.18
CC(C)C[C@@H]1N=C(O)N(c2ccc3c(c2)OCO3)C1=O,-6,0.5
CC[C@H](NS(=O)(=O)c1cccc2nn(C)nc12)C1CC(O)C1 (some centres undefined),-6,1.02
Cc1cc(C)n(-c2cncc(NCC(C)(C)N3CCOCC3)n2)n1,-15,1.73
COCCC[C@H]1CCCCN1C(=O)c1cccc(O)n1,0,0.08
Cc1nc(-c2ccc(C(=O)NCCCN3CCCC[C@@H]3CO)cc2)nn1C,-9,1.76
CCN(C)c1ccc(C(N)=NOCc2ncc(C)o2)cc1,-4,0.72
Cc1nnc(NC(=O)c2cnn(Cc3ccccc3)c2)s1,-10,1.35
COc1ccccc1-c1nc(NCc2ccccc2)nc2nn(-c3cccc(F)c3)c(N)c12,-8,1.42
Cc1cnn(-c2cc3c(cc2C(N)=O)OCO3)c1,-10,1.13
C[C@H](NC(=O)Cc1cccc(F)c1)c1noc(Cc2ccccc2)n1,10,-1.68
Cc1c(C(=O)O)nn(-c2ccc(F)cc2)c1Oc1ccc(NC(=O)C2CCC2)cc1S(=O)(=O)NC(C)C,-6,0.67
CCNC(=O)[C@H]1CCN(Cc2cc(C#N)n(C)c2C)C1,-13,1.71
Cc1ccc(S(=O)(=O)Nc2nnc(-c3ccsc3)s2)s1,-13,2.18
Cc1ccc(-c2ncccc2C(=O)Nc2ccccc2F)s1,5,-0.66
CCC[C@@]1(C)C(=O)NCCN1C(=O)c1occc1C,-9,1.27
O=C(O)c1ccc(CN2C[C@H]3C[C@@H](O)CC[C@H]3C2)c(F)c1,-11,1.29

Structure (SMILES),% Inhibition [%],Z score
O=C(NCCc1noc([C@@H]2CCCO2)n1)c1ccnnc1,-12,1.74
Cc1cc(NC(=O)NC(C)(C)CN(C)Cc2ccccc2)nn1C,-9,1.61
O=c1[nH]nc(-c2ccccc2)c2c1CCCC2,-3,0.53
O=C1CC[C@](CCC(=O)N2CCN(c3ncc4ccccc4n3)CC2)(Cc2cccs2)N1,6,-0.75
CN(C)S(=O)(=O)CCNC(=O)C(=O)N1CCc2ccccc21,-14,1.38
Cn1cnc(CNC(=O)Nc2nc3c(s2)CC(C)(C)CC3)n1,-11,1.26
Cc1cc(C)n(CCCNC(=O)[C@@H]2CCCC[C@@H]2C(=O)Nc2ccc(Cl)cc2)n1,-6,0.81
CN([C@H]1CCCOC1)S(=O)(=O)c1ccc2c(c1)C(=O)CCC2,-6,0.58
CC(C)(C)c1ccc(-c2nc(N)ns2)cc1,-1,0.15
CC(C)CNC(=O)C[C@H](c1cccc(C(F)(F)F)c1)c1cn(Cc2ccccc2)c2ccccc12,-3,0.36
Nc1cccc(F)c1C(=O)C(F)(F)F,-3,0.42
NC(=NCC1CC1)NCCc1ccccc1,2,-0.32
CC1CN(C(=O)NCCOc2cccnc2)C1c1ccccc1 (centres undefined),-7,1.38
CN(c1ccc(Cl)c(C(=O)NC2CCCC2)c1)S(C)(=O)=O,26,-2.97
O=C(CCc1ccc2c(c1)OCCO2)Nc1ccc2c(c1)OCO2,-7,1.38
CCC(O)C1CCCCN1S(C)(=O)=O (centres undefined),-2,0.27
COc1ccc(Cn2c(C)cnc2[C@@H]2CCCN2C(=O)CC2CCCC2)cc1,-13,1.69
COC[C@@H]1CN(c2cnccn2)C[C@H]1C(=O)NCCc1ccccn1,-12,1.88
CCCn1c(=O)[nH]c2cc(-c3noc([C@H](C)Oc4ccccc4)n3)ccc21,-12,1.56
CCCn1c([C@H]2CCN(S(=O)(=O)c3cnn(CC)c3)C2)nc2cccnc21,-5,0.6
CCc1ncc(S(=O)(=O)N2CCCn3c(cc4ccccc43)C2)s1,10,-1.38
